Laboratory results published in the supplement of paper PMC10126150.
Values marked as one replicate rest on one cluster of the flow cell; about a third of the high ones do not repeat.

Tested on: ATP
Experiment: switch fluorescence ratio, 500 uM ATP over buffer (Cy3 cluster intensity, sum of 5 cycles each) (fold (ratio)); higher = stronger signal-on switching upon ATP binding; sequences stand for … in TCGTCGGCAGCGTCAGATGTGTATAAGAGACAGTTTTTTTTTTTTTTTTTTTTTTTTT…TC
Settings: aptamer strand: ATP DNA aptamer (quencher-CACCTGGGGGAGTATTGCGGAGGAAGG + anchor), 100 nM annealed; ATP concentration: 500 uM; one replicate
In short: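 Imaging in selection buffer was followed by imaging after 15 min with 500 uM ATP at 22 °C, for Cy3-labelled switching-strand clusters annealed to 100 nM quencher-labelled ATP aptamer on a modified Illumina MiSeq flow-cell. Five of these buffer/ATP cycles ran, separated by NaOH stripping and re-annealing. The fluorescence ratio per cluster is summed target-cycle over summed buffer-cycle Cy3 intensity, averaged per switch-domain sequence; clusters outside 100-1000 RFU were removed.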
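Also: ATP exposure 15 min at 22 °C before imaging.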

Row | Sequence | switch fluorescence ratio
1 | GCAGGCCGGT | 0.982
2 | AACAACGTAA | 1.17
3 | ACGGGTCATG | 1.01
4 | AAAAATCA | 0.996
5 | GAATGATGTT | 0.999
6 | CTTCTCATAC | 3.01
7 | CATAGAGGTG | 1.07
8 | GGTGGCCAAA | 0.986
9 | AGCCCGTGTA | 0.991
10 | AAGTGTGGTT | 0.995
11 | ATTATCGCTA | 1.04
12 | AAATAGAGTC | 1.01
13 | TAACTGTATG | 0.96
14 | CAGAAGCGTT | 1.06
15 | TACTAAGGGT | 0.985
16 | GTTGAATGTA | 0.939
17 | CGAACGCGTC | 1.3
18 | TGTTCCGAGC | 1.48
19 | ACAAACCCGC | 1.14
20 | TATCCAAG | 1.02
21 | TGCCTGATAG | 0.991
22 | ATTTAGAGGA | 1.04
23 | CGTAGTGAAC | 1.81

Row | Sequence | switch fluorescence ratio
24 | TCTTGTGTTA | 0.978
25 | CCATTGCGGA | 1.07
26 | CCACAGCCCG | 1.12
27 | TGCGCTAGAT | 1.07
28 | CCGGCCCGGT | 1.05
29 | ACTTCAATCC | 1.01
30 | AACTGGTCGT | 1.02
31 | TGACGCTTTG | 1.02
32 | AGTATATCGA | 1
33 | GCATCTCAGG | 1.1
34 | GTTCCGACTG | 1.33
35 | GATCGGCGGT | 1.04
36 | TTTTGCCCCT | 1.05
37 | GTGGTTAAAT | 1
38 | TTCGTAATGA | 1.09
39 | CAGGTGGCGC | 1.07
40 | GCAACGGCGT | 1.06
41 | CTCCCATGTT | 1.08
42 | CAGTTACCTC | 1.07
43 | AGTTTTGCGG | 0.942
44 | GGTTTTTGAT | 1.02
45 | CAAAGTGCAG | 1.01
46 | CGCCGACTAT | 1.16

Row | Sequence | switch fluorescence ratio
47 | ATATACACTG | 1.11
48 | TAGAGAGCAG | 0.994
49 | TGGACAATCA | 0.952
50 | CCCTGCTCGG | 1.06
51 | GGGAGTTCAA | 0.999
52 | CATTATAGTT | 0.971
53 | AATGGGCAAC | 0.973
54 | TCGTCTCACG | 0.987
55 | ACAAGCAGC | 1.1
56 | TAACGAGGGT | 1.1
57 | ATCGAGAGTA | 0.982
58 | CAGACTCCGC | 3.68
59 | ATGTAGGTTC | 0.993
60 | GGTATTCTCT | 0.965
61 | TTATCTATA | 0.997
62 | TGCGCCGATG | 1.04
63 | GGTGGCAATG | 0.984
64 | TATGGGGACC | 0.996
65 | CCCTGGTCTA | 0.967
66 | GTGTGTGTAG | 0.995
67 | GTTGGTTCTG | 0.995
68 | AGGGGCTGCT | 1.01
69 | GATCGACGCA | 1.71

Row | Sequence | switch fluorescence ratio
70 | TAATAACGAG | 1.02
71 | AGGTACCGGG | 1.03
72 | CGGACATGAG | 1
73 | TAACGTAAAA | 1.09
74 | GCCGCGCGAC | 1.26
75 | GCCGCTTGCG | 0.982
76 | CAGAAGTGCC | 1.04
77 | CTTGGCCTGC | 0.982
78 | TGATTCGTGG | 0.992
79 | ATTTCTTTGT | 0.992
80 | GGTTATGTGA | 1.02
81 | TTATCTGACT | 0.982
82 | CCTTTCTGCA | 1.58
83 | GCTCAGACGC | 1.1
84 | TTGTATCTGG | 1
85 | GATATAAGGA | 1.02
86 | TGGACACGTT | 0.971
87 | ATCTCTACCC | 1.01
88 | TGCAGGGGCA | 1.03
89 | AACGTTTGT | 0.986
90 | GCCGCTTCCG | 1.01
91 | GCTATCGTTT | 0.964
92 | GACATTACGA | 1.35

Row | Sequence | switch fluorescence ratio
93 | CGTAATGTAC | 1.75
94 | CGATAGCTAA | 1.09
95 | AGGAGAAGG | 1.03
96 | GAGAAACGAT | 0.974
97 | GAGAAGGTGT | 1.14
98 | GAGTATATGA | 1.03
99 | GTTGACGTAC | 1.48
100 | CCGTGTACC | 1.38
101 | AAAACACAG | 1.07
102 | CCTTCAAGCT | 1.63
103 | GTAAATCAA | 1.01
104 | ACCGCGCGCC | 1.1
105 | AGTGAAATCA | 0.989
106 | ATACACGGCT | 1.01
107 | CTAAGACCGT | 1.01
108 | TATCTCAGCC | 0.995
109 | TTCGGAAAAA | 1.15
110 | GATTGGTCGC | 1.07
111 | GCTGGCACTC | 0.977
112 | TTCCAGGCCT | 0.981
113 | CTCTTGGGA | 1.04
114 | GCGAATCTCT | 1.04
115 | GAATAGGTGT | 1.07

Row | Sequence | switch fluorescence ratio
116 | GTATAGTGTG | 0.978
117 | GCCTAGCGGT | 1.01
118 | GTTATCAAAT | 0.993
119 | ATATATTGGG | 1.01
120 | CTGTTAACG | 1.01
121 | ATTCCAGAA | 0.987
122 | TTTCAGGTGA | 0.98
123 | GTGCCTGATA | 0.942
124 | GGTGGTTCGG | 0.982
125 | AGCAACGAAC | 1.78
126 | ATTCTGCGGG | 1.05
127 | GCGCCGTCTT | 1.04
128 | GTGAAGGGCG | 1.01
129 | TTAGGCACGA | 1.02
130 | GTAAACGAAA | 1.01
131 | TGTCAATAGC | 1.15
132 | TGTATGGTTC | 0.994
133 | AATATGTCAT | 1.02
134 | TGCAACCTAA | 0.995
135 | CCGTCTATAT | 3.07
136 | GGGGCATGTG | 1
137 | TTCCGAATAT | 1.09
138 | ATTGTTTACC | 0.968

Row | Sequence | switch fluorescence ratio
139 | ACTAGTAATC | 1.01
140 | CCTGGGGCGA | 1.59
141 | GCTGGGCTGT | 0.999
142 | TGGCAAAGCG | 0.977
143 | TATTGCTCC | 1.05
144 | GAGGGTTTGC | 0.968
145 | GGGTGAGATG | 1.03
146 | TTATTTGGCG | 0.95
147 | TGAATCGAAC | 1.07
148 | GTCTTTTATT | 1.01
149 | CTTATACAGA | 1.06
150 | AATCATAGCT | 1.01
151 | ATTATTCACT | 1.01
152 | CTAACGCAGT | 1.18
153 | GCGTTCACTT | 1.02
154 | GTGGTTGCAA | 0.984
155 | TAGCGACCTG | 1.03
156 | AATCGTCACA | 1.04
157 | CTGGGTGGAT | 0.999
